# From PubChem BioAssay AID720709 (National Center for Advancing Translational Sciences (NCATS), 2013)
# In all, about 360,000 compounds went through this assay and about 520 (0.14%) were called active. This list was built around the results that the source calls inconclusive (neither active nor inactive); the mix of calls is not that of the screen. Calls come from the whole dose curve; as a rule, active = well fitted inhibition curve with a large enough effect; inconclusive = small, poorly fitted or top-dose-only effect; inactive = no such curve, though single readings can be large or run the other way. No potency is given beside an inconclusive call; the fits are too rough.
# Biological target: Rap guanine nucleotide exchange factor 3 (Homo sapiens) (UniProt O95398)
# Sequence of UniProt O95398 (O95398 whole entry, looked up): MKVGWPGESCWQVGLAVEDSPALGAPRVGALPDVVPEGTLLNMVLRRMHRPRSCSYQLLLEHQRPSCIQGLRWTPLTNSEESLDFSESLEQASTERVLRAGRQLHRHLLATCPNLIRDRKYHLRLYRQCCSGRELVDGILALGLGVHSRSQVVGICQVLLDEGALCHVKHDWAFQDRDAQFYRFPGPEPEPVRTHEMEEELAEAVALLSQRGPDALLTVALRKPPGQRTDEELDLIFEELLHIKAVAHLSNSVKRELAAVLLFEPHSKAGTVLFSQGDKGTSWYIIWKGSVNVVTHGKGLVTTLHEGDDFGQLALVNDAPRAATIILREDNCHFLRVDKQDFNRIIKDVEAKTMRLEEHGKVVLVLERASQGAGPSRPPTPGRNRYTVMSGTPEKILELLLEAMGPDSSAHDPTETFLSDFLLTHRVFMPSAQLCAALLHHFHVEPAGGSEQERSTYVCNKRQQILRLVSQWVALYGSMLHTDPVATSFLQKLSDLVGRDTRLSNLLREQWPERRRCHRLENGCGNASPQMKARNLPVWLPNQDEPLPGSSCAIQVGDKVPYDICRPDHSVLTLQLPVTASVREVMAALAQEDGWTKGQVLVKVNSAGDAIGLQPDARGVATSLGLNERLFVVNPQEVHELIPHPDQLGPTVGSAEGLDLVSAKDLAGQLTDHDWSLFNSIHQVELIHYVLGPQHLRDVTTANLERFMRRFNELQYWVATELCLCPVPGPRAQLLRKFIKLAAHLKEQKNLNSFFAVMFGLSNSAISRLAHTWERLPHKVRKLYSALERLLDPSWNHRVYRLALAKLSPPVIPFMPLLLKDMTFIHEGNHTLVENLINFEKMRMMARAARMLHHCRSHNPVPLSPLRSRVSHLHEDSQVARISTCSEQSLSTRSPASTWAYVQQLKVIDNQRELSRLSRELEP
# Assay: qHTS for Antagonist of cAMP-regulated guanine nucleotide exchange factor 3 (EPAC1): primary screen; note: nearly all actives have a fitted effect of over 50% in size;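 for activity change, negative = inhibition: plate controls were vehicle for no effect and positive control for full effect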
# Conditions: EPAC1 GEF assay, Rap1b-BODIPY-GDP exchange fluorescence; activity change, negative = inhibition: at 115 µM (top of the series)
# Potency is the fitted concentration of half-maximal effect; tags give direction and shape of the fitted curve.
SMILES,Potency,"activity change, negative = inhibition"
Cc1cccc(NS(=O)(=O)c2ccc(-c3cnc(C4CC4)o3)cc2)c1C,"inconclusive [inhibitor, full curve, poor fit]",–
CCCCCCN1C=CC=C/C1=C/C=C(C#N)C#N,active: 89.1 µM,–
CC1CN(c2ccc([N+](=O)[O-])c(NCCOc3ccccc3)c2)CC(C)N1 (stereo not given),"inconclusive [inhibitor, partial curve]",–
CCOc1ccccc1NC(=O)Cn1nnc(C(=O)NCc2cccs2)c1N,"inconclusive [inhibitor, partial curve]",–
O=C(Nc1ccc2c(c1)CCCN2C(=O)c1cccs1)c1cccc(F)c1,"inconclusive [inhibitor, partial curve, poor fit]",–
CCOC1=C2[C@H](c3cccc(Cl)c3)N(S(=O)(=O)c3ccc(C)cc3)C[C@H]2n2c(=O)n(-c3ccccc3)c(=O)n2C1,"inconclusive [inhibitor, partial curve, poor fit]",–
CC(=O)c1ccccc1OCc1ccc(S(=O)(=O)Cc2ccccc2)cc1,inactive,–
COc1ccc(-n2c(Cc3cccn3C)nnc2SCC(=O)NCc2ccco2)cc1,"inconclusive [inhibitor, partial curve]",–
CN(CCO)c1ccc2c(c1)OC[C@@H](Cc1ccccc1)NS2(=O)=O,inactive,–
C[C@H](CO)N1C[C@H](C)[C@@H](CN(C)CC2CCCCC2)Oc2c(NC(=O)CCC(F)(F)F)cccc2C1=O,"inconclusive [inhibitor, full curve]",–
O=C(/C=C/c1ccc(S(=O)(=O)N2CCOCC2)cc1)NCc1ccc(Cl)cc1,"inconclusive [inhibitor, full curve, poor fit]",–
c1csc(-c2cn3ccc4ccccc4c3n2)c1,"inconclusive [inhibitor, single point]",–
CCNC(=O)CSc1nc2cc(S(=O)(=O)Nc3ccc(OC)cc3)ccc2o1,"inconclusive [inhibitor, partial curve]",–
O=C1OC(c2ccccc2)=NC12CC2c1ccc(Cl)cc1 (stereo not given),"inconclusive [inhibitor, partial curve]",–
CCOC(CNc1ncnc2sc(-c3ccccc3)cc12)OCC,inactive,–
O=c1c2ccccc2nc(/C=C/c2cccc(Br)c2)n1CCCO,"inconclusive [inhibitor, single point]",–
COc1ccc(-n2nc(C(=O)NCC(=O)Nc3cccc(NC(C)=O)c3)c3ccccc3c2=O)cc1,"inconclusive [inhibitor, single point]",–
Cc1cc(Cl)cc(C)c1OCCCCCn1ccnc1,inactive,–
CCc1ccccc1NC(=S)N(Cc1cccnc1)Cc1ccco1,"inconclusive [inhibitor, partial curve, poor fit]",–
Cn1cc(S(=O)(=O)N2CCCC2)cc1C(=O)NCCc1ccccc1,"inconclusive [inhibitor, single point]",–
c1ccc(CC(Cc2ccccc2)c2ccccn2)cc1,"inconclusive [inhibitor, single point]",–
COc1ccc(CCN(C)c2ccc(S(=O)(=O)N3CCCC3)cc2[N+](=O)[O-])cc1OC,"inconclusive [inhibitor, partial curve]",–

SMILES,Potency,"activity change, negative = inhibition"
COc1cccc(/C=N/NC(=S)Nc2cccc(C(=O)O)c2)c1O,inactive,–
Cc1cc(C)cc(-n2ccn(CC(=O)NCCc3ccccc3)c(=O)c2=O)c1,"inconclusive [inhibitor, partial curve]",–
Cc1ccc(CNC(=O)c2ccc(Cl)c(S(N)(=O)=O)c2)n1C,"inconclusive [inhibitor, single point]",–
COc1cccc(F)c1C(=O)NC(=O)Nc1ccc2nc(C)oc2c1,inactive,–
CCOC(=O)c1ccc(OS(=O)(=O)c2ccccc2)c(OC)c1,"inconclusive [inhibitor, single point]",–
CCOc1ccc(S(=O)(=O)N2CCN(C(=O)COc3ccc(Br)cc3)CC2)cc1,"inconclusive [inhibitor, full curve, poor fit]",–
Cc1ccc(NC(=O)c2c3c(nc4ccccc24)CCC3)cc1S(=O)(=O)N(C)C,"inconclusive [inhibitor, full curve, poor fit]",–
S=c1[nH]nc(Cn2nnc3ccccc32)n1-c1ccccc1,–,inconclusive: -13.3% [inhibitor]
Cc1ccc(NC(=O)C(=O)NC(C)C2COc3ccccc3O2)cc1 (stereo not given),"inconclusive [inhibitor, partial curve]",–
O=C(O)c1ccc(NC(=S)NC(NC(=O)c2ccco2)C(Cl)(Cl)Cl)cc1 (stereo not given),"inconclusive [inhibitor, full curve]",–
O=C(CSc1ccc(Cl)cc1)Nc1ccc(N2CCN(C(=O)c3ccco3)CC2)cc1,"inconclusive [inhibitor, single point]",–
Cc1ccc(C2(C)NC(=O)N(CC(=O)Nc3ccc4[nH]c(=O)[nH]c4c3)C2=O)cc1 (stereo not given),"inconclusive [inhibitor, single point]",–
COc1ccc(CC2(CO)CCN(Cc3cccn3-c3ccccn3)CC2)cc1,"inconclusive [inhibitor, single point]",–
CSc1ccc(C2c3[nH]c4ccccc4c3CCN2C(=O)c2ccnn2C)cc1 (stereo not given),"inconclusive [inhibitor, single point]",–
O=C(COc1ccc(C(=O)O)cc1)Nc1cccc(C(F)(F)F)c1,"inconclusive [inhibitor, single point]",–
O=C(c1c(O)cc(O)cc1O)C1c2c(cc(O)c3c2O[C@H](c2ccc(O)cc2)[C@@H](O)C3)OC1c1ccc(O)cc1 (stereo not given in full),"inconclusive [inhibitor, partial curve]",–
NNc1ccc([N+](=O)[O-])c2[nH][nH]c(=O)c12,"inconclusive [inhibitor, partial curve]",–
[O-][n+]1c2ccccc2[n+]([O-])c2cc(O)ccc21,"inconclusive [inhibitor, partial curve]",–
COc1ccccc1C(=O)NC(=O)COC(=O)Cc1n[nH]c(=O)c2ccccc12,"inconclusive [inhibitor, partial curve]",–
COc1ccccc1C(=O)NC(CCSC)C(=O)NNC(=O)c1ccccc1O (stereo not given),–,inconclusive: -31% [inhibitor]
COc1cc(OC)cc(C(=O)NC(=S)Nc2ccc(Cl)c(C(=O)O)c2)c1,inactive,–
Cc1cc(OCC(O)CN2CCN(c3ccccn3)CC2)cc(C)c1Cl (stereo not given),inactive,–

SMILES,Potency,"activity change, negative = inhibition"
O=c1c(-c2cccs2)nc2ccccc2n1C(c1ccccn1)c1nc2ccccc2[nH]1 (stereo not given),inactive,–
Cc1c(OC(C)C(=O)NCC(O)c2ccccc2)ccc2c3c(c(=O)oc12)CCCC3 (stereo not given),"inconclusive [inhibitor, partial curve, poor fit]",–
O=C(Cn1c(=O)n(Cc2ccco2)c(=O)c2c3c(sc21)CCCCC3)c1ccccc1,"inconclusive [inhibitor, partial curve]",–
O=C(CSc1ccccn1)Nc1ccccc1F,inactive,–
COc1ccc2c(c1OC)C(=O)OC2,inactive,–
Nc1nc(N)nc(C2C=CCCC2)n1 (stereo not given),"inconclusive [inhibitor, partial curve]",–
Cc1ccc2c(CC(=O)OCc3cc(=O)n4c(n3)sc3ccccc34)coc2c1,"inconclusive [inhibitor, partial curve]",–
C/C(CC(=O)N1CCCC1)=N\NC(=O)c1cc2ccccc2cc1O,"inconclusive [inhibitor, partial curve]",–
Cc1c(C(=O)NC(C)c2ccccn2)oc2c(Cl)cccc12 (stereo not given),"inconclusive [inhibitor, single point]",–
O=C(Nc1cccc(C(=O)N2CCCC2)c1)C1CCC1,"inconclusive [inhibitor, single point]",–
CCCN(CCC)S(=O)(=O)c1ccc(Cl)c(OC)c1,"inconclusive [inhibitor, full curve, poor fit]",–
NC(Cc1ccccc1)c1csc(NC(=O)Nc2ccccc2Oc2ccccc2)n1 (stereo not given),inactive,–
CC1C=CCC2C(=O)N(c3cccc(C(=O)Nc4ccc(Br)cc4)c3)C(=O)C12 (stereo not given),"inconclusive [inhibitor, partial curve]",–
CCOc1cc(C)c(-c2onc(C(F)(F)F)c2-c2csc(C)n2)c(O)c1,"inconclusive [inhibitor, partial curve]",–
Cc1oc(C)c2c(=O)ccc3c(c12)OC(N)=C(C#N)C3c1ccccc1Cl (stereo not given),"inconclusive [inhibitor, single point]",–
CCN(CC)CCC(c1cc(OC)c(OC)c(OC)c1)c1c(O)cc(OC)cc1OC (stereo not given),"inconclusive [inhibitor, single point]",–
Cc1onc(-c2ccccc2)c1NC(=O)N(CCC(=O)O)Cc1ccccc1,inactive,–
Cc1cc(C)n(CCCN2CCC(C(=O)Nc3cccc(-c4cccc(F)c4)c3)CC2)n1,inactive,–
CCOC(=O)c1c(C)[nH]c(C(=O)C(C)OC(=O)c2cccc(OCc3c(C)noc3C)c2)c1C (stereo not given),"inconclusive [inhibitor, partial curve]",–
CCC1(C)Cc2ccccc2-c2nc[nH]c(=O)c21 (stereo not given),"inconclusive [inhibitor, partial curve, poor fit]",–
COc1ccc2[nH]c(C(=O)N/N=C/c3ccc(OC)c(O)c3)cc2c1,"inconclusive [inhibitor, partial curve]",–
